Molecules are shown by their SMILES. The whole screen tested about 45,000 compounds, of which about 200 (0.44%) were called active. Another 7% or so got no clear call; they are omitted. The call rests on the fitted dose curve; in most records, active means well fitted activation curve with a large enough effect; inconclusive means small, poorly fitted or top-dose-only effect; inactive means no such curve, though single readings can be large or run the other way. The list shows a part of the results.

The nature of this test: qHTS of TDP-43 Inhibitors: NCGC Sytravon Library Screen. Further: 0% is about no effect; nearly all actives have a fitted effect of over 55% in size. Conditions: yeast TDP-43 toxicity rescue, BacTiter-Glo growth, 24 h; series mostly up to 46.1 µM; growth rescue (activation): at the top concentration. In a few lines: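 TDP-43-expressing yeast, pregrown in raffinose, seeded at OD600 0.02 in galactose medium with compound for 24 hr at 30 deg C. Growth read by BacTiter-Glo luminescence, so rescue of toxicity appears as activation.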
In general terms: In qHTS, concentration-response curves come from the screen itself.
With `Clc1ccc(CN2C3=NCCCN3c3ccccc32)cc1Cl`, the “growth rescue (activation)” value was inactive: 12.9%.
For the molecule `CCOc1ccc(N=C2C(=O)Nc3ccc(C)c(Br)c32)cc1`, the “growth rescue (activation)” value is inactive: 4.29%.
For `Cn1c(=N)n(CC(=O)c2ccccc2)c2ccccc21`, the “growth rescue (activation)” value is inactive: -2.92%.
Under `Cn1nc(C(=O)Nc2nc3ccccc3[nH]2)ccc1=O` stands inactive: -5.35%; under `Cc1cccc(NC(=O)C2(C)CC3c4ccccc4C2c2ccccc23)c1` (centres undefined), inactive: 18.2%; under `Cc1c(NC(=O)CSc2ccc(Cl)cc2)c(=O)n(-c2ccccc2)n1C`, inactive: -2.13%.
As to `O=C(NNC(=O)C1CC2CCC1C2)c1sc2ccccc2c1Cl` (centres undefined), the “growth rescue (activation)” value is inactive: 0.231%.
On to `COCC(=O)N(Cc1cc2cc(OC)ccc2[nH]c1=O)c1ccccc1OC`, for which the “growth rescue (activation)” value is inactive: -1.18%.
With `CN1c2ccccc2Sc2cc(N)ccc21` the figure was inactive: -2.88%; with `CN(CC(=O)N1CCOCC1)C(=O)CSc1nc2ccccc2s1`, inactive: 0.795%.
`CC(=O)Nc1nc(-c2ccccc2)nc(C)c1C(C)=O`: the “growth rescue (activation)” value was inactive: 13.8%.
Turning to `CCn1cc(C(=S)N2CCC(C(N)=O)CC2)c2ccccc21`, the “growth rescue (activation)” value was inactive: 1.29%.
`Cc1ccnc(NC(=O)Cc2ccc(F)cc2)n1`: the “growth rescue (activation)” value is inactive: 0.0101%.
As to `Cc1nc(S(=O)(=O)Cc2ccccc2)nc2c1CCC2`, the “growth rescue (activation)” value was inactive: 8.04%.
With `CN(C)CCP(=O)(c1ccccc1)c1ccccc1` the figure was inactive: 1.47%; with `COc1cccc(-c2nc(-c3ccccc3)nc(N3CCN(C)CC3)c2C#N)c1`, inactive: -4.02%; with `O=C(CNC(=O)c1ccc(-c2ccccc2)cc1)OCc1c(Cl)cccc1Cl`, inactive: 2.62%.
In the case of `O=[N+]([O-])c1ccc(S(=O)(=O)N2CCSC2c2ccco2)cc1` (centres undefined), the “growth rescue (activation)” value is inactive: 3.64%.
For the molecule `Cc1ccc2c(COC(=O)c3ccc(C)c(C)c3)cc(=O)oc2c1`, the “growth rescue (activation)” value is inactive: -1.88%.
With `COc1cccc(-c2cnc3c(NC(C)=O)cc(-c4ccc(S(C)(=O)=O)cc4)cn23)c1` the figure was inactive: 4.97%.
With `CCCCOc1cccc(C(=O)Nc2ccc(S(=O)(=O)Nc3cc(C)on3)cc2)c1`, the “growth rescue (activation)” value was inactive: 14.8%.
With `O=C(c1ccc2c(c1)OCO2)C1CCCN(C(=O)C2CCOCC2)C1` (centres undefined), the “growth rescue (activation)” value was inactive: 1.29%.
Consider `O=C(OCC(=O)C12CC3CC(CC(C3)C1)C2)c1ccccc1O`, for which the “growth rescue (activation)” value was inactive: -13.7%.
For the molecule `CCc1cccc(C)c1NC(=O)c1cc(-c2ccncc2)nc2ccccc12`, the “growth rescue (activation)” value is inactive: -5.18%.
With `CCN(CCO)c1ccc(Nc2cc(-c3ccc(-c4ccccc4)cc3)ncn2)cc1` the figure was inactive: 27.4%; with `NC(=O)NCC(=O)N1CCC(C(O)(c2ccccc2)c2ccccc2)CC1`, inactive: 21.3%.
For the molecule `CCc1c(C(=O)NCCc2cccc(C)c2)[nH]c(C)c1C(C)=O`, the “growth rescue (activation)” value was inactive: 25.9%.
Regarding `CCC(=O)NC(Nc1ccccn1)(C(=O)OC)C(F)(F)F` (centres undefined), the “growth rescue (activation)” value is inactive: 11.8%.
As to `Nc1cc(C(=O)N/N=C/c2cccc([N+](=O)[O-])c2)n[nH]c1=O`, the “growth rescue (activation)” value is inactive: 13.6%.
With `Cc1ccc(S(=O)(=O)Nc2ccncc2)c(C)c1N(C)S(=O)(=O)c1ccc(F)cc1` the figure was inactive: 20.1%; with `COC(=O)[C@H](CC(C)C)NC(=O)CCc1nnc(COc2ccccc2)o1`, inactive: -13.2%; with `O=C(Nc1ccccc1)c1ccc(-c2ccc([N+](=O)[O-])cc2)o1`, inactive: 3.36%.
With `CCCCN(C(=O)C1CCCC1)c1c(N)n(Cc2ccccc2)c(=O)[nH]c1=O` the figure was inactive: -6.83%.
For the molecule `Cc1ccccc1N(C(=O)CNC(=O)c1ccco1)C(C(=O)NC1CCCC1)c1ccncc1` (centres undefined), the “growth rescue (activation)” value was inactive: 0.587%.
Take `COC(=O)C1C(c2ccc(OC)cc2)NC(=O)NC1(O)C(F)(F)Cl` (centres undefined): the “growth rescue (activation)” value is inactive: -1.03%.
For `CCN(CC(=O)Nc1ccccc1C(F)(F)F)C(=O)Cc1ccccc1`, the “growth rescue (activation)” value is inactive: 17.9%.
Consider `Cc1cc(C)n2c(SCC(=O)Nc3cccc(S(N)(=O)=O)c3)nnc2n1`, for which the “growth rescue (activation)” value was inactive: -8.56%.
For `CCNC(=O)CSc1nnc(-c2cccs2)o1`, the “growth rescue (activation)” value was inactive: 10.1%.
In the case of `COc1ccccc1C(=O)NC(=S)Nc1ccc2[nH]c(=O)[nH]c2c1`, the “growth rescue (activation)” value was inactive: 8.32%.
With `COc1cc(/C=C(\C#N)C(=O)NCC2CCCO2)cc(OC)c1OC` (centres undefined), the “growth rescue (activation)” value was inactive: 22.8%.
Under `O=C1NCC(c2ccccc2)C1C(=O)N/N=C\c1ccc(-c2ccc(Cl)c(Cl)c2)o1` (centres undefined) stands inactive: 30.3%.
Consider `Cc1cccc(NC(=O)Cn2cc(C(=O)C3CC3)c3ccccc32)c1C`, for which the “growth rescue (activation)” value is inactive: 19.2%.
Take `O=C(c1ccc(C(F)(F)F)cc1)C1CCCN(C(=O)CCc2cnccn2)C1` (centres undefined): the “growth rescue (activation)” value is inactive: 10.8%.
Turning to `CCCNC(=O)C1(C)CCCN(C(=O)c2cccc(C#N)c2)C1` (centres undefined), the “growth rescue (activation)” value was inactive: 1.45%.
For the molecule `COc1ccccc1CNC(=O)CN1CCN(S(=O)(=O)c2cccs2)CC1`, the “growth rescue (activation)” value is inactive: -0.0566%.
Under `CCc1c(C)sc(NC(=S)Nc2nc(C)cc(C)n2)c1C(=O)OC` stands inactive: 27.9%; under `O=C(C[n+]1ccc(C(=O)NCc2ccccc2)cc1)c1ccc(OC(F)F)cc1`, inactive: 19.3%; under `O=C(O)CN1C(=O)/C(=C\c2cn(CC(=O)N3CCOCC3)c3ccccc23)SC1=S`, inactive: 10%.
Turning to `COCC(C)n1c(C)cc(C(=O)CSc2nnnn2-c2ccc(O)cc2)c1C` (centres undefined), the “growth rescue (activation)” value was inactive: -1.07%.
In the case of `O=C(Nc1cccc(Cl)c1)c1cccnn1`, the “growth rescue (activation)” value was inactive: 1.29%.
As to `COC(=O)c1sccc1NC(=O)COc1ccccc1Cl`, the “growth rescue (activation)” value is inactive: 14.4%.
In the case of `CCOc1ccccc1N(CC(=O)Nc1ccccc1C(=O)N1CCCC1)S(C)(=O)=O`, the “growth rescue (activation)” value is inactive: -7.28%.
For the molecule `COc1ccc(N2CCN(C(=O)C3CCN(S(=O)(=O)c4ccccc4)CC3)CC2)cc1`, the “growth rescue (activation)” value was inactive: 8.01%.
For `CCOC(=O)C1(CCCc2ccccc2)CCN(C(=O)c2cnn(CC)c2)CC1`, the “growth rescue (activation)” value is inactive: 13.9%.

Values taken from PubChem BioAssay AID1347073 (National Center for Advancing Translational Sciences (NCATS), 2019).
